Reference: paper PMC4336329 (PLoS ONE, 2015)
Hit rate of the full screen: of about 310,000 compounds, about 14,000 (4.5%) showed an effect of 50% or more. The effect is printed as a negative number. The list shows a part of the results.

The compounds below were run against human ether-à-go-go-related gene (hERG) potassium channel (human, UniProt Q12809) (assay: primary screen, population patch clamp on CHO cells stably expressing hERG).
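Note: peak tail current of the secondary pulse compared with the same well before compound.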

human ether-à-go-go-related gene (hERG) potassium channel, sequence (Q12809 whole entry, looked up): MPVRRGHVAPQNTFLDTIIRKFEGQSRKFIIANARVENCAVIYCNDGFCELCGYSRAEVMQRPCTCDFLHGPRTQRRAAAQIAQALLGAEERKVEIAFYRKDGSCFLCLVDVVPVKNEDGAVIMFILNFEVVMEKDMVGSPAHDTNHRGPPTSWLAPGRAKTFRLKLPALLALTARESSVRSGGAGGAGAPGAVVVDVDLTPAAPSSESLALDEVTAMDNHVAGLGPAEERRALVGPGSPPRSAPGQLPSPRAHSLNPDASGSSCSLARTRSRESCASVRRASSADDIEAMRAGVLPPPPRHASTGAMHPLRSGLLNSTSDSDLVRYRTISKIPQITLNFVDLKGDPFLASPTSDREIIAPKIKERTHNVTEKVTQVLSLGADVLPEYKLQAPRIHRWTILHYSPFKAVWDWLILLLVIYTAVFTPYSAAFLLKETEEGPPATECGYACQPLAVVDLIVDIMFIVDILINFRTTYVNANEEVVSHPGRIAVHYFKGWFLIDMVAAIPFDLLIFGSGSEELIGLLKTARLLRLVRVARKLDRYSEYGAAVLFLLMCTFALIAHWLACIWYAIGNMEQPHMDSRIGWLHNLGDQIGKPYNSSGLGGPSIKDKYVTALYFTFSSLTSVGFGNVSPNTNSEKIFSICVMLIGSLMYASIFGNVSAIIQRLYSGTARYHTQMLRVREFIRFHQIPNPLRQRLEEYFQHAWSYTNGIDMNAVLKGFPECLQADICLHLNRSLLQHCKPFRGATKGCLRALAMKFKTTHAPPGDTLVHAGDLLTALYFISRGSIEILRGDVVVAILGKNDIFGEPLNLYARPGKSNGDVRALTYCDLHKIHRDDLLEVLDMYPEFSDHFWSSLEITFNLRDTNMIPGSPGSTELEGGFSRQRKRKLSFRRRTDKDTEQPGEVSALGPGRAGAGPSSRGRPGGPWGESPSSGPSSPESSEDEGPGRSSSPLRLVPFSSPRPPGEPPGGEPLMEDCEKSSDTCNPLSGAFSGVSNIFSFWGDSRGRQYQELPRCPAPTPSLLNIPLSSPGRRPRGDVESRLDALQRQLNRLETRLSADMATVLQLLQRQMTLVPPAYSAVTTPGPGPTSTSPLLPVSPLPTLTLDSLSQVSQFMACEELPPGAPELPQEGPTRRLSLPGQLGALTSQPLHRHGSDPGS

Compound | hERG current change (%, negative = inhibition) at 10uM [%]
CSc1cc(/C=N/O)c(SC)s1 | -13.2
Cc1c(NC(=O)C2Cc3ccccc3CN2C(=O)c2ccco2)c(=O)n(-c2ccccc2)n1C (stereo not drawn) | -13.7
O=C(NC(=S)Nc1cc(S(=O)(=O)N2CCOCC2)ccc1N1CCOCC1)C1CCCC1 | -17
COc1ccccc1/C=C1\CCCC2=C1Nc1nnnn1C2c1ccccc1OC (stereo not drawn) | 9
CC[C@H](C)[C@H](NC(N)=O)C(=O)OCC(=O)NCc1ccc(Cl)cc1 | 16.8
CN1CCC(OC(=O)c2ccco2)CC1.Cl | 0.374
COc1ccc(-n2c(SCC#N)nc3c(sc(=S)n3-c3ccccc3)c2=O)c(OC)c1 | 18.1
CCNC(=O)COc1cc(C)c(Cl)c(C)c1 | 0.136
Cc1ccc(C(=O)NCCNC(=O)COc2ccccc2Cl)cn1 | 6.95
CC(=O)Nc1ccc(SCCC2CCCCN2C)cc1 (stereo not drawn) | 7.77
O=C1C2C3C=CC(CNS(=O)(=O)c4ccccc4)(O3)C2C(=O)N1c1ccc(Cl)cc1 (stereo not drawn) | -7.19
Cc1ccc(C(=O)Nn2c(N)c(S(=O)(=O)c3ccc(C)cc3)c3nc4ccccc4nc32)cc1 | 0.488
COc1cccc(CNC(=O)C(CC(C)C)NC(=O)c2ccccc2C)c1 (stereo not drawn) | 22
N/C(=N\N=C\c1ccco1)SC1CC(=O)N(c2ccc(C(=O)O)cc2)C1=O (stereo not drawn) | 31.7
O=C(c1ccccc1)c1ccc2nc(N3CCN(C(=O)c4ccco4)CC3)c3nncn3c2c1 | -45.1
COc1ccc([C@H]2CC(=O)C=C(c3ccc(SC)cc3)C2)cc1 | 13.8
COc1ccc(CNC(=O)c2cc3c(s2)CS(=O)C3)cc1 (stereo not drawn) | 12
CCOC(=O)c1cc(NC(=O)c2ccccc2)c(=O)oc1-c1ccccc1 | 3.33
CC(=O)N/N=C\c1ccccc1OC/C=C/c1ccccc1 | 30.5

Compound | hERG current change (%, negative = inhibition) at 10uM [%]
O=C(Oc1cccnc1)c1cc(S(=O)(=O)N2CCCCC2)ccc1Cl | 12.5
Cc1cc2c(cc1C)NC1=C(N2)OC(c2cccc(O)c2)C1=O (stereo not drawn) | -2.04
Cc1ccc(SCC(=O)Nc2ncc(C)s2)cc1 | -6.79
O=c1oc2ccccc2cc1-c1csc(Nc2nc3c(F)cccc3s2)n1 | 8.29
COc1ccc(C(C)=O)cc1COC(=O)c1ccc2ccccc2n1 | -0.671
N#Cc1cccc(-n2nnnc2-c2ccccn2)c1 | 13.3
Cc1ccc(/C=C/C(=O)NCC2COc3ccccc3O2)o1 (stereo not drawn) | -18.2
Nc1c2c(nc3ccccc13)N(C1CCCCC1)CC2 | -65.6
CC(C)(CSc1ncccn1)NS(=O)(=O)c1ccccc1 | 22.6
CCN(c1ccccc1)S(=O)(=O)c1cc(NC(=O)COC(=O)C2CC2)ccc1Cl | -39.1
CC1(C)CC(=O)C(C=NCCN2CCN(C(=O)Cc3ccccc3)CC2)=C(O)C1 | -24.8
COc1ccc(C=O)cc1COc1ccccc1F | -7.67
O=C(Nc1cccc2ccccc12)c1ccc(F)cc1 | 5.58
O=C(NC(=S)NNC(=O)c1cccs1)c1ccccc1 | -15.4
O=C(Nc1ccccc1)Oc1ccc[nH]c1=O | 21.4
COc1ccc(-c2csc(N3C(=O)CNC3=S)n2)cc1 | 16.9
N#CCCN(Cc1cccnc1)S(=O)(=O)c1ccc(S(=O)(=O)N2CCCCCC2)cc1 | -25
C=Cn1ccnc1P(=S)(c1ccc(Cl)cc1)c1nccn1C=C | -2.53
O=C(Cc1c(Cl)cccc1Cl)N1CCN(Cc2ccccc2)CC1 | -0.0324

Compound | hERG current change (%, negative = inhibition) at 10uM [%]
Cc1occc1C(=O)NCCCc1ccccc1 | 4.61
CC(NC(=O)c1ccc2c(c1)OCO2)C(c1cccs1)N1CCN(c2ccccc2)CC1 (stereo not drawn) | 3.68
Cc1cccc(C(=O)NC2CC3CCCC(C2)N3C(=O)Nc2ccccc2)c1 (stereo not drawn) | 17.6
CC(C)CN1CCCC(N2CCN(c3cccc(Cl)c3)CC2)C1 (stereo not drawn) | -21.5
O=C(CSc1ncccn1)Nc1ccc2[nH]c(=O)[nH]c2c1 | 0.729
O=C1CN=C(c2ccccc2Cl)c2cc(Br)ccc2N1 | -30.7
CN(Cc1ccco1)c1ncnc2ccc(-c3ccccc3Cl)cc12 | 2.59
CCCCCN1CC(O)=C(c2nc(-c3ccc(Cl)cc3)cs2)C1=N | 11.4
COc1ccc(-c2cc(C#N)nc(N3CCNCC3)n2)cc1 | -79.3
CCN(CC)c1ccc(C(=O)OCC(=O)NC2CCCCC2C)cc1 (stereo not drawn) | -0.411
CC(C)C(CCNC(=O)CC(Cc1ccccc1)c1ccco1)c1ccco1 (stereo not drawn) | -20
Cc1ccc(NC(=O)C2CCCN2C(=O)OCc2ccccc2)c(O)c1 (stereo not drawn) | 18
CN(c1ccccc1)S(=O)(=O)c1nnc(NC(=O)COc2ccccc2F)s1 | 24.4
CC(C)(C)S(=O)(=O)/C(C#N)=C/c1sccc1C1OCCO1 | 7.35
Cc1ccc2cc(CN(CC3CCCO3)S(=O)(=O)c3ccccc3)c3nnnn3c2c1 (stereo not drawn) | -28.6
COc1cc(C(=O)Nc2ccccc2N2CCN(S(C)(=O)=O)CC2)cc(OC)c1OC | -29.9
COc1ccc(CCNC(=O)C2CCN(C(=O)c3ccc([N+](=O)[O-])cc3)CC2)cc1 | -65.6
CCOCCCN(C(=O)c1snc(C(N)=O)c1N)C(C(=O)NCCC(C)C)c1ccc(F)cc1 (stereo not drawn) | -23.6
Cc1c(C(=O)OCC(=O)c2ccc3c(c2)OCCO3)oc2ccccc12 | 4.75
